Assay results as given in the supplement of paper PMC4604168 (melanoma cell lines).
The other results are listed elsewhere or left out. Repeats are few or missing, and single values can be far off.

Tests used:
Assay in all cases: cell count relative to DMSO control; melanoma cells; higher = more viable cells
Settings in all cases: library dose: low library concentration; 72 h
MZ2-MEL = test system: MZ2-MEL
MeWo = test system: MeWo
RPMI7951 = test system: RPMI7951
RVH-421 = test system: RVH-421
SkMel28 = test system: SkMel28
SkMel30 = test system: SkMel30
UACC62 = test system: UACC62
WM115 = test system: WM115
WM1716 = test system: WM1716
WM1745 = test system: WM1745
WM3526 = test system: WM3526
WM3619 = test system: WM3619
WM451Lu = test system: WM451Lu
SkMel5 = test system: SkMel5
UACC257 = test system: UACC257
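Also: cell number obtained by counting DAPI-stained nuclei in high-throughput microscope images with image analysis software, screen run in 1,536-well plates.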

| SMILES | cell count (MZ2-MEL) [%] | cell count (MeWo) [%] | cell count (RPMI7951) [%] | cell count (RVH-421) [%] | cell count (SkMel28) [%] | cell count (SkMel30) [%] | cell count (UACC62) [%] | cell count (WM115) [%] | cell count (WM1716) [%] | cell count (WM1745) [%] | cell count (WM3526) [%] | cell count (WM3619) [%] | cell count (WM451Lu) [%] | cell count (SkMel5) [%] | cell count (UACC257) [%] |
| --- | --- | --- | --- | --- | --- | --- | --- | --- | --- | --- | --- | --- | --- | --- | --- |
| CCCCCCCCCCCCCCCCCCOP(=O)([O-])OC1CC[N+](C)(C)CC1 [Perifosine] + C[C@]12O[C@H](C[C@]1(O)CO)n1c3ccccc3c3c4c(c5c6ccccc6n2c5c31)CNC4=O [Lestaurtinib] (first compound 0.4 µM, partner dose 0.004 µM) | 97.4 | 85.5 | 98.3 | 104 | 87.2 | 96.7 | 90.6 | 99 | 92.5 | 91.3 | 104 | 94.4 | 91.9 | – | – |
| Cc1cc(SCc2sc(-c3ccc(C(F)(F)F)c(F)c3)nc2C)ccc1OCC(=O)O + O=C(Oc1ccc([N+](=O)[O-])cc1)N1CCC(C(O)(c2ccc3c(c2)OCO3)c2ccc3c(c2)OCO3)CC1 [JZL184] (first compound 2 µM, partner dose 1 µM) | 98.9 | 86.8 | 99 | 103 | 89 | 90.6 | 88.3 | 97.7 | 104 | 92.7 | 97.4 | 104 | 93.7 | 86.5 | 90.5 |
| O=C(Nc1ccccc1)c1cc([N+](=O)[O-])ccc1Cl + O=C(Oc1ccc([N+](=O)[O-])cc1)N1CCC(C(O)(c2ccc3c(c2)OCO3)c2ccc3c(c2)OCO3)CC1 [JZL184] (first compound 2 µM, partner dose 1 µM) | 97.8 | 106 | 96.8 | 111 | 78.3 | 95.3 | 86.4 | 102 | 101 | 112 | 102 | 110 | 94.4 | 93.7 | 106 |
| O=C(Nc1cc(C(F)(F)F)cc(C(F)(F)F)c1)c1cc(Cl)ccc1O + C[C@]12O[C@H](C[C@]1(O)CO)n1c3ccccc3c3c4c(c5c6ccccc6n2c5c31)CNC4=O [Lestaurtinib] (first compound 0.016 µM, partner dose 0.004 µM) | 104 | 90.2 | 113 | 112 | 84.8 | 115 | 112 | 98.8 | 108 | 107 | 91.6 | 101 | 102 | – | – |
| C[C@]1(c2nc3c(C(N)=O)cccc3[nH]2)CCCN1 [Veliparib] + Cc1cc(SCc2sc(-c3ccc(C(F)(F)F)c(F)c3)nc2C)ccc1OCC(=O)O [GW0742] (first compound 1.4 µM, partner dose 2 µM) | 101 | 91.8 | 90.5 | 84.2 | 89.6 | 104 | 81.5 | 92.4 | 89.1 | 98.2 | 93.8 | 114 | 102 | 93.6 | 95.2 |
| O=C(O)c1ccc(-c2c[nH]c3ncc(-c4ccccc4)cc23)cc1C1CCCC1 + C/C(O)=C(\C#N)C(=O)Nc1cc(Br)ccc1Br [LFM-A13] (first compound 0.16 µM, partner dose 2 µM) | 99 | 85.3 | 96.1 | 118 | 83.2 | 107 | 82.1 | 93.6 | 100 | 96.6 | 113 | 97.1 | 103 | 99.2 | 101 |
| Cc1cc(SCc2sc(-c3ccc(C(F)(F)F)c(F)c3)nc2C)ccc1OCC(=O)O + Oc1nc(-c2ccc(C(F)(F)F)cc2)nc2c1CSCC2 [XAV939] (first compound 2 µM, partner dose 2 µM) | 98.1 | 91.4 | 100 | 62 | 84.5 | 101 | 93.7 | 85.4 | 73.8 | 88.3 | 101 | 92.9 | 99.3 | 81.9 | 83.5 |
| CC1(C)NC(=O)N(c2ccc([N+](=O)[O-])c(C(F)(F)F)c2)C1=O [nilutamide] + Cc1cc(SCc2sc(-c3ccc(C(F)(F)F)c(F)c3)nc2C)ccc1OCC(=O)O [GW0742] (first compound 1 µM, partner dose 2 µM) | 99.8 | 117 | 105 | 129 | 99.2 | 89.8 | 96.8 | 98.6 | 104 | 90.8 | 88.1 | 104 | 112 | 97.4 | 86.1 |
| O=C(O)c1ccc(-c2c[nH]c3ncc(-c4ccccc4)cc23)cc1C1CCCC1 + Cc1cc(SCc2sc(-c3ccc(C(F)(F)F)c(F)c3)nc2C)ccc1OCC(=O)O [GW0742] (first compound 0.16 µM, partner dose 2 µM) | 99.5 | 79.6 | 91 | 111 | 62.9 | 93.1 | 87.3 | 97.1 | 120 | 94.6 | 112 | 98.2 | 103 | 88 | 93 |
| CCN(CC)CCCCNc1ncc2cc(-c3cc(OC)cc(OC)c3)c(NC(=O)NC(C)(C)C)nc2n1 + Cc1cc(SCc2sc(-c3ccc(C(F)(F)F)c(F)c3)nc2C)ccc1OCC(=O)O [GW0742] (first compound 0.1 µM, partner dose 2 µM) | 99.3 | 100 | 110 | 99.4 | 97.7 | 99.7 | 83.6 | 89.5 | 94.9 | 85.2 | 99.4 | 114 | 96.7 | 98.7 | 98.1 |
| Cc1cc(N2CCOCC2)cc2[nH]c(-c3c(NC[C@@H](O)c4cccc(Cl)c4)cc[nH]c3=O)nc12 + Cc1cc(SCc2sc(-c3ccc(C(F)(F)F)c(F)c3)nc2C)ccc1OCC(=O)O [GW0742] (first compound 0.2 µM, partner dose 2 µM) | 103 | 97.6 | 107 | 93.4 | 93.5 | 94.2 | 88.7 | 104 | 110 | 84.4 | 104 | 89.1 | 101 | 83.3 | 77.2 |
| NC(=O)Nc1cc(-c2cccc(F)c2)sc1C(=O)N[C@H]1CCCNC1 + C/C(O)=C(\C#N)C(=O)Nc1cc(Br)ccc1Br [LFM-A13] (first compound 0.02 µM, partner dose 2 µM) | 96.1 | 92.8 | 94.5 | 107 | 96.9 | 113 | 101 | 88.8 | 89.2 | 94.8 | 74.7 | 50 | 114 | 109 | 84.2 |
| N#CC[C@H](C1CCCC1)n1cc(-c2ncnc3[nH]ccc23)cn1 [ruxolitinib] + C[C@]12O[C@H](C[C@]1(O)CO)n1c3ccccc3c3c4c(c5c6ccccc6n2c5c31)CNC4=O [Lestaurtinib] (first compound 1 µM, partner dose 0.004 µM) | 95.6 | 92.6 | 93 | 101 | 85.5 | 85.8 | 102 | 106 | 102 | 92.4 | 81.8 | 93.6 | 101 | – | – |
| O=C(Nc1cccc(Cl)c1)Nc1ncc(CCNc2ncnc3ccsc23)s1 + Cc1cc(SCc2sc(-c3ccc(C(F)(F)F)c(F)c3)nc2C)ccc1OCC(=O)O [GW0742] (first compound 0.0008 µM, partner dose 2 µM) | 104 | 103 | 73.7 | 110 | 89.6 | 107 | 94.7 | 74 | 120 | 92.3 | 123 | 97.9 | 113 | 105 | 93.2 |
| Cc1cc(SCc2sc(-c3ccc(C(F)(F)F)c(F)c3)nc2C)ccc1OCC(=O)O + CC(C)CCN1c2nc(Nc3cc(F)c(O)c(F)c3)ncc2N(C)C(=O)C1C [BID1870] (first compound 2 µM, partner dose 0.2 µM) | 105 | 92.7 | 114 | 73.2 | 90.9 | 105 | 96.3 | 87.5 | 99.3 | 81.7 | 107 | 121 | 103 | 89 | 104 |
| NCC(=O)Nc1ccc(-n2nc(C(F)(F)F)cc2-c2ccc3c(ccc4ccccc43)c2)cc1 + Cc1cc(SCc2sc(-c3ccc(C(F)(F)F)c(F)c3)nc2C)ccc1OCC(=O)O [GW0742] (first compound 1 µM, partner dose 2 µM) | 93.2 | 54.2 | 113 | 106 | 89.6 | 44 | 95.7 | 98.3 | 90 | 109 | 47.1 | 100 | 61.5 | 72.3 | 106 |
| COc1ccc(-c2ccc3c(N4CCOCC4)nc(N4C[C@@H](C)O[C@@H](C)C4)nc3n2)cc1CO + C/C(O)=C(\C#N)C(=O)Nc1cc(Br)ccc1Br [LFM-A13] (first compound 0.02 µM, partner dose 2 µM) | 93.6 | 89.4 | 85.7 | 77.2 | 86.7 | 76.6 | 87.1 | 88.5 | 95.5 | 88 | 80.6 | 101 | 95.5 | 104 | 88.1 |
